Data published in PubChem BioAssay AID1745853 (National Center for Advancing Translational Sciences (NCATS), 2022).
The list shows a part of the results. The main result of the screen is listed elsewhere. These columns were measured beside it and carry no call.

Legend:
Test in all cases: Primary Screen for Target Class Profiling of Small Molecule Inhibitors of Methyltransferases
[1] = biological target: Glycine N-methyltransferase (Homo sapiens) (UniProt Q14749); details: purified enzyme, MTase-Glo SAH luminescence; measured here: GNMT inhibition; at 40 µM; stronger effect = lower value
Excerpt: (§1) PI: Matthew D. Hall Ph.D. and Quinlin M. Hanson Ph.D.
(§2) National Center for Advancing Translational Sciences (NCATS)
(§3) National Institute of Health (NIH), Rockville, MD
(§4) Target class profiling (TCP) is a chemical biology approach amenable to investigating understudied biological targets. TCP is achieved by developing a generalizable assay platform and applying it to screen a curated set of compound libraries against representative members of a target class. Small molecule methyltransferases (SMMTase) are a subclass of methyltransferase that act on metabolites to modulate signaling pathways, metabolize xenobiotics, or balance the available methyl pool. We screened four curated libraries totaling 27,574 unique compounds against the SMMTases nicotinamide N-methyltransferase (NNMT), phenylethanolamine N-methyltransferase (PNMT), histamine N-methyltransferase (HNMT), glycine N-methyltransferase (GNMT), catechol O-methyltransferase (COMT), and guanidinoacetate N-methyltransferase (GAMT). The data generated by this TCP can be leveraged for informed tool molecule development. For example, in the associated publication we identified a chemotype of HNMT-selective inhibitors. Additionally, we identified a putative SMMTase-selective inhibitor with potential as a tool molecule for studying broader methyltransferase biology.
(§5) High-through put screening assays were developed at the National Center for Advancing Translational Science (NCATS) for the enzymes NNMT, PNMT, HNMT, GNMT, COMT, and GAMT. Enzymatic activity was measured as a function of SAM cofactor conversion using the MTase Glo kit (Promega) for all enzymes. All assays were performed in 1536-well format with substrates and SAM concentrations at KM values. Enzyme concentration and assay timing were optimized for 10-20% SAM conversion. Initial screening of 27,574 compounds was done as single-point assays using the highest compound concentration (40 uM). […] These compounds were replated in 11-point dose response and assayed against NNMT, PNMT, HNMT, GNMT, COMT, GAMT, and a counter-assay. The IC50 and efficacy (maximal response) values were determined for each dose-response curve. These values are also accounted for in the area under the curve (AUC) values.
(§6) PROTOCOL TABLE (as described by Inglese J, Shamu CE and Guy RK. 2007)
(§7) SEQUENCE No. (e.g., 1, 2, 3, etc.); […] (e.g., Cells, Incubation, Reagent, etc.); VALUE; DESCRIPTION.
(§8) 1; Reagent; 2 uL; SMMTase Enzyme (2x) in reaction buffer, columns 1- 48.
(§9) 2; Reagent; 1 uL; SAM (4x) in reaction buffer, columns 1-48.
(§10) 3; Controls; 23 nL; DMSO in column 4; sinefungin in DMSO (0 uM - 40 uM) in 7-point 1:2 dilution series (n = 2) in column 2.
(§11) 4; Compounds; 23 nL; Columns 5-48.
(§12) 5; Reagent; 1 uL; Substrate (4x) in reaction buffer, columns 2-48.
(§13) 6; Time; 20-30 min; Incubation.
(§14) 7; Reagent; 1 uL; MTase-Glo reagent (5X), columns 1-48.
(§15) 8; Time; 30 min; Incubation.
(§16) 9; Reagent; 5 uL; MTase-Glo Detection reagent, columns 1-48.
(§17) 10; Time; 30 min; Incubation, luminescence evolution.
(§18) 11; Detection; Luminescence; ViewLux uHTS Microplate Imager (PerkinElmer).
(§19) NOTES (numbers refer to Sequence numbers above)
(§20) 1, 2, 5. White Medium Binding Greiner 1536-well plates (Cat #789175-F, Greiner Bio-One, Monroe, NC); Reaction buffer: 50 mM Tris, pH 8.0, 3 mM MgCl2, 1 mM EDTA, 50 mM NaCl, 1 mM DTT, and 0.1 mg/mL BSA. Evaporation was prevented by covering assay plates with metal lids containing holes to allow gas diffusion.
(§21) 1. Six SMMTase were profiled: HNMT, GNMT, PNMT, COMT, NNMT, GAMT
(§22) 5. The corresponding substrate was used for each enzyme: HNMT - 5.3 uM Histamine; GNMT - >500 uM Glycine; PNMT - 16.2 uM Norephinephrine; COMT - 13.7 uM Norephinephrine; NNMT - 3.8 uM Nicotinamide; GAMT - 2.5 uM Guanidinoacetate.6, 8, 10. Room temperature
(§23) 6. Final reaction conditions: 10 nM COMT, 5 uM SAM, 15 uM norepinephrine, 50 mM Tris, pH 8.0, 3 mM MgCl2, 1 mM EDTA, 50 mM NaCl, 1 mM DTT, and 0.1 mg/mL BSA; refer to tables 2 and S1 for specific timing.
8. […]

[2] = biological target: Guanidinoacetate N-methyltransferase (Homo sapiens) (UniProt Q14353); details: purified enzyme, MTase-Glo SAH luminescence; measured here: GAMT inhibition; at 40 µM; stronger effect = lower value
Excerpt: as §1, §2, §3, §4, §5, §6, §7, §8, §9, §10, §11, §12, §13, §14, §15, §16, §17, §18, §19, §20, §21, §22, §23
8. […]

[3] = biological target: Histamine N-methyltransferase (Homo sapiens) (UniProt P50135); details: purified enzyme, MTase-Glo SAH luminescence; measured here: HNMT inhibition; at 40 µM; stronger effect = lower value
Excerpt: as §1, §2, §3, §4, §5, §6, §7, §8, §9, §10, §11, §12, §13, §14, §15, §16, §17, §18, §19, §20, §21, §22, §23
8. […]

[4] = biological target: Nicotinamide N-methyltransferase (Homo sapiens) (UniProt P40261); details: purified enzyme, MTase-Glo SAH luminescence; measured here: NNMT inhibition; at 40 µM; stronger effect = lower value
Excerpt: as §1, §2, §3, §4, §5, §6, §7, §8, §9, §10, §11, §12, §13, §14, §15, §16, §17, §18, §19, §20, §21, §22, §23
8. […]

[5] = biological target: Phenylethanolamine N-methyltransferase (Homo sapiens) (UniProt P11086); details: purified enzyme, MTase-Glo SAH luminescence; measured here: PNMT inhibition; at 40 µM; stronger effect = lower value
Excerpt: as §1, §2, §3, §4, §5, §6, §7, §8, §9, §10, §11, §12, §13, §14, §15, §16, §17, §18, §19, §20, §21, §22, §23
8. […]
% is scaled to controls: 0 for no effect and ±100 for the full control effect.

Structure (SMILES) | activity change, negative = inhibition [1] | activity change, negative = inhibition [2] | activity change, negative = inhibition [3] | activity change, negative = inhibition [4] | activity change, negative = inhibition [5]
Cc1noc2c(N3CCOCC3)cc(-c3cccs3)nc12 | -9% | -21.2% | -3.72% | -50.8% | -2.35%
C=C1/C(=C/C=C2\CCC[C@]3(C)[C@@H]([C@H](C)/C=C/[C@@H](C)C(C)C)CC[C@@H]23)C[C@@H](O)C[C@@H]1O | -17.1% | 6.55% | 3.04% | -15.1% | -0.388%
O=C(NC[C@H]1COCc2nc3cc(F)ccc3n21)C1CC1 | -2.54% | -2.19% | 0.243% | -0.699% | -1.17%
CC1(CO)CC[C@]2(C(=O)O[C@@H]3O[C@H](CO)[C@@H](O)[C@H](O)[C@H]3O)CC[C@]3(C)C(=CCC4[C@@]5(C)C[C@H](O)[C@H](O[C@@H]6OC[C@@H](O)[C@H](O)[C@H]6O)[C@@](C)(CO)C5CC[C@]43C)C2C1 (stereo not given in full) | 0% | 7.22% | 8.49% | -6.09% | 3.05%
Cn1nccc1CCC(=O)N1CCN(C(=O)C2CCC2)[C@@H]2CS(=O)(=O)C[C@@H]21 | -1.1% | -1.3% | 0.998% | -4.93% | -2.31%
Nc1nc(C2CC(O)C2)cc(N2CC(N3CCOCC3)C2)n1 (stereo not given) | -1.6% | -4.5% | -0.981% | -3.3% | -9.76%
CN(Cc1cccn1C)C(=O)Nc1ccc(Cl)cc1 | -6.26% | -3.29% | -1.75% | -3.04% | -9.03%
O=C(CCC1CCCN(S(=O)(=O)c2ccccc2F)C1)NCCCN1CCCC1=O (stereo not given) | 0.863% | 4.02% | -0.418% | -2.4% | -2.72%
COc1ccc(N2C(=O)c3cc4occc4n3CC2(C)C(=O)NC2CCCCCC2)cc1OC (stereo not given) | 1.93% | 0% | 8.49% | 4.8% | 2.87%
COCCNCc1ccc(-c2cc3nccc(Oc4ccc(NC(=O)C5(C(=O)Nc6ccc(F)cc6)CC5)cc4F)c3s2)nc1 | -4.99% | 5.63% | 4.13% | -10.3% | 4.68%
COCc1nn(CC(=O)NC(C)Cc2cc(C)[nH]n2)c(=O)n1-c1ccccc1 (stereo not given) | -4.09% | -11.2% | -2.83% | -14.3% | -12.1%
C=C(C(=O)O)C1CCC2(C)CCCC(C)(O)C2C1 (stereo not given) | -2.54% | -7.77% | 5.37% | -18.4% | 1.23%
CC12CCC(OC3OC(CO)C(O)C(OC4OC(CO)C(O)C(O)C4O)C3O)CC1CCC1C2CCC2(C)/C(=C3/COC(=O)C3)CCC12O (stereo not given) | 3.87% | 0.378% | 11.5% | -11.7% | -5.88%
COc1ccccc1CN1C(=O)c2cc(C(C)(C)C)nn2CC1(C)C(=O)NC1CCCCCC1 (stereo not given) | 4.87% | 4.85% | 6% | 0.496% | 2.21%
CC(C)[C@@](C)(O)[C@@H]1CN(c2nc(-c3[nH]nc4ncccc34)c(F)cc2Cl)CCN1 | -50.5% | -45.9% | -63% | -55.4% | -63.9%
CNC(=O)[C@@H]1C[C@@H](n2cc(CNC(=O)Cc3ccc(F)cc3)nn2)CN1 | -0.507% | 0.782% | 2.31% | -3.66% | 12.4%
O=c1c2ccccc2n2c(=O)n(Cc3ccccc3)nc2n1CCc1ccccc1 | -3.88% | -1.8% | 1.85% | -5.57% | -3.38%
COC(=O)c1cc2n(n1)CC(C)(C(=O)NC1CCCCCC1)N(c1cccc(C)c1C)C2=O (stereo not given) | -2.24% | -0.566% | 3.08% | -4.19% | -3.99%
Cc1ccccc1CN1C(=O)c2nc3ccccc3n2CC1(C)C(=O)NC1CCCCC1 (stereo not given) | 3.62% | 1.74% | 4.64% | 2.84% | -1.77%
Cc1cccc(C)c1OCC(C)N (stereo not given) | -1.93% | 3.1% | 1.35% | -6.37% | -9.4%
CCCn1c(=O)c2ccc(C(=O)NCC(C)C)cc2n2c(=O)n(Cc3cc(C)ccc3C)nc12 | 3.86% | 3.75% | 4.1% | -2.8% | -0.997%
Cc1cccc(NC(=O)CSc2nnc3n(Cc4ccc(F)cc4)c(=O)c4ccccc4n23)c1 | 2.89% | 4.75% | 9.35% | -0.999% | 2.25%
CCN1C(=O)c2cc(C(=O)Nc3cccc(Cl)c3)nn2CC1(C)C(=O)NC1CCCC1 (stereo not given) | -1.2% | -0.253% | -2.11% | -5.65% | -2.96%
CC(=O)O[C@@H]1C[C@@]23C[C@@]24CC[C@H](OC2OC[C@@H](O)[C@H](O)[C@H]2O)C(C)(C)[C@@H]4CC[C@H]3[C@]2(C)CC3OC4(C[C@@H](C)C3[C@@]12C)OCC1(C)OC14 (stereo not given in full) | 4.42% | 3.54% | 8.37% | -9.36% | -1.65%
CCN(CC)CCCNC(=O)CCc1nnc2n(CCc3ccccc3)c(=O)c3ccccc3n12 | -3.65% | 0.238% | -44.5% | 11.4% | 2.52%
COc1cccc(CN2C(=O)c3c(-n4cccc4)c4ccccc4n3CC2(C)C(=O)NC2CCCC2)c1 (stereo not given) | -1.45% | 8.34% | -2.95% | -3.95% | 0.727%
C=C1C(=O)OC2CC(C)=C(C(C)CCCOC(C)=O)C(OC(=O)CC(C)CC)C12 (stereo not given) | 0.406% | 12.1% | 7.55% | -7.14% | 4.64%
COCC1CN(C(C)=O)CC12CCN(C(=O)C1CC=CC1)CC2 (stereo not given) | -8.77% | -7.99% | -3.98% | -11.8% | -5.96%
